# Assay results published in the supplement of paper PMC8728848.
# The other results are listed elsewhere or left out.
# B1: Epa1to9 (Candida glabrata) (protein)
# chain: MGSSHHHHHHSSGLVPRGSHMTSSNDISLASKDPTTFPLGCSPDITTPKKGLSMELYSYDFRKKGSYPCWDAAYLDPNYPRTGYKSHRLLAKVDGVTGNINFYYHATKGCTPQLGHLPASYNYPKPLTMTNFTMLLYGYFRPKVTGFHTFTISADDLLFVNFGAGNAFDCCRRDSSADHFGNYQAYAIWGSKTAKDELTVHLDAGVYYPIRLFYNNRDYHGALSFTFKTESNENTVSDFSEYFFSLDDTEEGCPGLISYD
# Assays:
# Test in all cases: glycan array binding signal (z-score within array); higher = stronger binding
# Conditions in all cases: glycan notation: IUPAC condensed, linker removed
# [1] = biological target: Neu5Ac(a2-3)Gal(b1-4)GlcNAc(b1-2)Man(a1-3)[Neu5Ac(a2-6)Gal(b1-4)GlcNAc(b1-2)Man(a1-6)]Man(b1-4)GlcNAc(b1-4)GlcNAc
# Summary of the method: (§1)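 Arrays were curated from the Consortium for Functional Glycomics database, 3228 in total, and kept only where the protein sequence was available. Binding is expressed as a within-array Z-score. This score was averaged across arrays of the same protein sequence at different concentrations or buffers and across linkers, and negative values can be read as non-binding.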
# [2] = biological target: Neu5Ac(a2-3)Gal(b1-4)GlcNAc(b1-2)[Neu5Ac(a2-3)Gal(b1-4)GlcNAc(b1-4)]Man(a1-3)[GlcNAc(b1-4)][Neu5Ac(a2-3)Gal(b1-4)GlcNAc(b1-2)[Neu5Ac(a2-3)Gal(b1-4)GlcNAc(b1-6)]Man(a1-6)]Man(b1-4)GlcNAc(b1-4)GlcNAc
# Summary of the method: as §1
# [3] = biological target: Neu5Ac(a2-3)Gal(b1-4)GlcNAc(b1-2)[Neu5Ac(a2-3)Gal(b1-4)GlcNAc(b1-4)]Man(a1-3)[GlcNAc(b1-4)][Neu5Ac(a2-3)Gal(b1-4)GlcNAc(b1-4)Man(a1-6)]Man(b1-4)GlcNAc(b1-4)GlcNAc
# Summary of the method: as §1
# [4] = biological target: Neu5Ac(a2-3)Gal(b1-4)GlcNAc(b1-2)[Neu5Ac(a2-3)Gal(b1-4)GlcNAc(b1-6)]Man(a1-6)[Neu5Ac(a2-3)Gal(b1-4)GlcNAc(b1-2)Man(a1-3)][GlcNAc(b1-4)]Man(b1-4)GlcNAc(b1-4)GlcNAc
# Summary of the method: as §1
# [5] = biological target: Neu5Ac(a2-3)Gal(b1-4)GlcNAc(b1-3)Gal
# Summary of the method: as §1
# [6] = biological target: Neu5Ac(a2-3)Gal(b1-4)GlcNAc(b1-3)Gal(b1-3)GlcNAc
# Summary of the method: as §1
# [7] = biological target: Neu5Ac(a2-3)Gal(b1-4)GlcNAc(b1-3)Gal(b1-4)GlcNAc
# Summary of the method: as §1
# [8] = biological target: Neu5Ac(a2-3)Gal(b1-4)GlcNAc(b1-3)Gal(b1-4)GlcNAc(b1-2)Man(a1-3)[Neu5Ac(a2-3)Gal(b1-4)GlcNAc(b1-3)Gal(b1-4)GlcNAc(b1-2)Man(a1-6)]Man(b1-4)GlcNAc(b1-4)GlcNAc
# Summary of the method: as §1
# [9] = biological target: Neu5Ac(a2-3)Gal(b1-4)GlcNAc(b1-3)Gal(b1-4)GlcNAc(b1-3)Gal(b1-4)GlcNAc
# Summary of the method: as §1
# [10] = biological target: Neu5Ac(a2-3)Gal(b1-4)GlcNAc(b1-3)Gal(b1-4)GlcNAc(b1-3)Gal(b1-4)GlcNAc(b1-2)Man(a1-3)[Neu5Ac(a2-3)Gal(b1-4)GlcNAc(b1-3)Gal(b1-4)GlcNAc(b1-3)Gal(b1-4)GlcNAc(b1-2)Man(a1-6)]GalNAc
# Summary of the method: as §1
# [11] = biological target: Neu5Ac(a2-3)Gal(b1-4)GlcNAc(b1-3)Gal(b1-4)GlcNAc(b1-3)GalNAc
# Summary of the method: as §1
# [12] = biological target: Neu5Ac(a2-3)Gal(b1-4)GlcNAc(b1-3)Gal(b1-4)GlcNAc(b1-3)[Neu5Ac(a2-3)Gal(b1-4)GlcNAc(b1-3)Gal(b1-4)GlcNAc(b1-6)]GalNAc
# Summary of the method: as §1
# [13] = biological target: Neu5Ac(a2-3)Gal(b1-4)GlcNAc(b1-3)Gal(b1-4)GlcNAc(b1-6)[Gal(b1-3)]GalNAc
# Summary of the method: as §1
# [14] = biological target: Neu5Ac(a2-3)Gal(b1-4)GlcNAc(b1-3)Gal(b1-4)[Fuc(a1-3)]GlcNAc
# Summary of the method: as §1
# [15] = biological target: Neu5Ac(a2-3)Gal(b1-4)GlcNAc(b1-3)GalNAc
# Summary of the method: as §1
# [16] = biological target: Neu5Ac(a2-3)Gal(b1-4)GlcNAc(b1-3)[Neu5Ac(a2-3)Gal(b1-4)GlcNAc(b1-6)]GalNAc
# Summary of the method: as §1
# [17] = biological target: Neu5Ac(a2-3)Gal(b1-4)GlcNAc(b1-6)GalNAc
# Summary of the method: as §1
# [18] = biological target: Neu5Ac(a2-3)Gal(b1-4)GlcNAc(b1-6)[Gal(b1-3)]GalNAc
# Summary of the method: as §1
# [19] = biological target: Neu5Ac(a2-3)Gal(b1-4)GlcNAc(b1-6)[Neu5Ac(a2-3)Gal(b1-3)]GalNAc
# Summary of the method: as §1
# [20] = biological target: Neu5Ac(a2-3)Gal(b1-4)GlcNAc6S
# Summary of the method: as §1
# [21] = biological target: Neu5Ac(a2-3)Gal(b1-4)[Fuc(a1-3)]GlcNAc
# Summary of the method: as §1
# [22] = biological target: Neu5Ac(a2-3)Gal(b1-4)[Fuc(a1-3)]GlcNAc(b1-2)Man
# Summary of the method: as §1
# [23] = biological target: Neu5Ac(a2-3)Gal(b1-4)[Fuc(a1-3)]GlcNAc(b1-3)Gal
# Summary of the method: as §1
# [24] = biological target: Neu5Ac(a2-3)Gal(b1-4)[Fuc(a1-3)]GlcNAc(b1-3)Gal(b1-4)GlcNAc
# Summary of the method: as §1
# [25] = biological target: Neu5Ac(a2-3)Gal(b1-4)[Fuc(a1-3)]GlcNAc(b1-3)Gal(b1-4)[Fuc(a1-3)]GlcNAc(b1-3)Gal(b1-4)[Fuc(a1-3)]GlcNAc
# Summary of the method: as §1
# [26] = biological target: Neu5Ac(a2-3)Gal(b1-4)[Fuc(a1-3)]GlcNAc(b1-3)GalNAc
# Summary of the method: as §1
# [27] = biological target: Neu5Ac(a2-3)Gal(b1-4)[Fuc(a1-3)]GlcNAc(b1-6)[Gal(b1-3)]GalNAc
# Summary of the method: as §1
# [28] = biological target: Neu5Ac(a2-3)Gal(b1-4)[Fuc(a1-3)]GlcNAc(b1-6)[Neu5Ac(a2-3)Gal(b1-3)]GalNAc
# Summary of the method: as §1
# [29] = biological target: Neu5Ac(a2-3)Gal(b1-4)[Fuc(a1-3)]GlcNAc6S
# Summary of the method: as §1
# [30] = biological target: Neu5Ac(a2-3)Gal6S(b1-4)GlcNAc
# Summary of the method: as §1
# [31] = biological target: Neu5Ac(a2-3)Gal6S(b1-4)[Fuc(a1-3)]GlcNAc
# Summary of the method: as §1
# Neu5Ac(a2-3)GalNAc = biological target: Neu5Ac(a2-3)GalNAc
# Summary of the method: as §1
# [32] = biological target: Neu5Ac(a2-3)GalNAc(b1-4)GlcNAc
# Summary of the method: as §1
# [33] = biological target: Neu5Ac(a2-3)[GalNAc(b1-4)]Gal(b1-4)Glc
# Summary of the method: as §1
# [34] = biological target: Neu5Ac(a2-3)[GalNAc(b1-4)]Gal(b1-4)GlcNAc
# Summary of the method: as §1
# [35] = biological target: Neu5Ac(a2-3)[GalNAc(b1-4)]Gal(b1-4)GlcNAc(b1-3)GalNAc
# Summary of the method: as §1
# [36] = biological target: Neu5Ac(a2-3)[Neu5Ac(a2-6)]GalNAc
# Summary of the method: as §1
binder,measurement,setting,value
B1,glycan array binding signal (z-score),[1],-0.322
same,glycan array binding signal (z-score),[2],-0.375
same,glycan array binding signal (z-score),[3],-0.357
same,glycan array binding signal (z-score),[4],-0.344
same,glycan array binding signal (z-score),[5],-0.359
same,glycan array binding signal (z-score),[6],-0.35
same,glycan array binding signal (z-score),[7],-0.342
same,glycan array binding signal (z-score),[8],-0.24
same,glycan array binding signal (z-score),[9],-0.327
same,glycan array binding signal (z-score),[10],-0.308
same,glycan array binding signal (z-score),[11],-0.345
same,glycan array binding signal (z-score),[12],-0.202
same,glycan array binding signal (z-score),[13],0.155
same,glycan array binding signal (z-score),[14],-1.82
same,glycan array binding signal (z-score),[15],-0.353
same,glycan array binding signal (z-score),[16],-0.351
same,glycan array binding signal (z-score),[17],-0.344
same,glycan array binding signal (z-score),[18],0.787
same,glycan array binding signal (z-score),[19],-0.321
same,glycan array binding signal (z-score),[20],-0.33
same,glycan array binding signal (z-score),[21],-0.343
same,glycan array binding signal (z-score),[22],-0.355
same,glycan array binding signal (z-score),[23],-0.342
same,glycan array binding signal (z-score),[24],-0.255
same,glycan array binding signal (z-score),[25],-0.328
same,glycan array binding signal (z-score),[26],-0.109
same,glycan array binding signal (z-score),[27],-0.061
same,glycan array binding signal (z-score),[28],-0.283
same,glycan array binding signal (z-score),[29],-0.36
same,glycan array binding signal (z-score),[30],-0.294
same,glycan array binding signal (z-score),[31],-0.352
same,glycan array binding signal (z-score),Neu5Ac(a2-3)GalNAc,-0.353
same,glycan array binding signal (z-score),[32],-0.358
same,glycan array binding signal (z-score),[33],-0.349
same,glycan array binding signal (z-score),[34],-0.346
same,glycan array binding signal (z-score),[35],-0.35
same,glycan array binding signal (z-score),[36],-0.358
